Reference: article PMC4336329 (PLoS ONE, 2015)
Hit rate of the full screen: of about 310,000 compounds, about 14,000 (4.5%) showed an effect of 50% or more. Effects have a minus sign here. The list shows a part of the results.

Each compound was assayed against human ether-à-go-go-related gene (hERG) potassium channel (human, UniProt Q12809) (assay: primary screen, population patch clamp on CHO cells stably expressing hERG).
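Further: peak tail current of the secondary pulse compared with the same well before compound.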

Sequence of human ether-à-go-go-related gene (hERG) potassium channel (Q12809 whole entry, looked up): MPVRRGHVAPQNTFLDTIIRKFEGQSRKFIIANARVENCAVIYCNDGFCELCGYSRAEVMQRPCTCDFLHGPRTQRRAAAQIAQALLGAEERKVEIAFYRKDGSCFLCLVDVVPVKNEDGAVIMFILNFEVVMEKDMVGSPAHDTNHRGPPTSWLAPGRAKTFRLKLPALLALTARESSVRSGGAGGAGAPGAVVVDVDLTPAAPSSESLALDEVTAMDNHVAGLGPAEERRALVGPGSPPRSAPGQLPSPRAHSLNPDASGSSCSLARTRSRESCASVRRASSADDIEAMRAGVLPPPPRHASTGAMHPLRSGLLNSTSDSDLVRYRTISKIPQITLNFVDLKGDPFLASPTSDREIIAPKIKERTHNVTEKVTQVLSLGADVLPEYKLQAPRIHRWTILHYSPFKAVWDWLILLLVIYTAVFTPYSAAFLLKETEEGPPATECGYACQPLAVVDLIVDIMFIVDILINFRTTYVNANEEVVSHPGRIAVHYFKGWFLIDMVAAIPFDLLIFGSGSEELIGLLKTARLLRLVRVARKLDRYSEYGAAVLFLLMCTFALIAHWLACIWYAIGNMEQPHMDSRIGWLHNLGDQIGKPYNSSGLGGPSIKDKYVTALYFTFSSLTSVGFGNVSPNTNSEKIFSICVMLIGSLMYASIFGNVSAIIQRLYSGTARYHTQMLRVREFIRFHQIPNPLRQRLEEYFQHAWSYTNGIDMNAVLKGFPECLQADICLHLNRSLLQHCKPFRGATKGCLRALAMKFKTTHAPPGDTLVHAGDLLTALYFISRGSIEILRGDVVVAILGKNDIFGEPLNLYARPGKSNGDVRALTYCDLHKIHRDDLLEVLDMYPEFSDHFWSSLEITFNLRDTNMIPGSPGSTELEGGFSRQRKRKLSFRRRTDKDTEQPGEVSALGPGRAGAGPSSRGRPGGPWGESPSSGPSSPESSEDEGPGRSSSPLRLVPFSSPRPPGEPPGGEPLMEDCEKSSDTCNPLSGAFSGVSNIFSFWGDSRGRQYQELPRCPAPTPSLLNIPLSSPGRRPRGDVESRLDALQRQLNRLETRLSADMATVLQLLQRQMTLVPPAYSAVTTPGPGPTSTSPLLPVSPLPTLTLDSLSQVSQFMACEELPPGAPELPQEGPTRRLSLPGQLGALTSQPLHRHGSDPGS

Row | SMILES | hERG current change (%, negative = inhibition) at 10uM
1 | O=C(NCC1CCCO1)c1cccc(Oc2ccccc2)c1 (stereo not drawn) | -37.5%
2 | COc1ccc(C(=O)Oc2cc(C)[nH]c(=O)c2[N+](=O)[O-])c(OC)c1 | 11.9%
3 | COc1cc2nc(CN3CC=C(c4ccccc4)CC3)[nH]c(=O)c2cc1OC | 8.47%
4 | O=C(CCCN1C(=O)/C(=C/c2ccccc2)SC1=S)NCCCn1ccnc1 | -59.9%
5 | CC(=O)c1c(C)[nH]c(C(=O)NC2CCSc3ccccc32)c1C (stereo not drawn) | -7.32%
6 | COc1ccccc1C(C(=O)NCc1ccccc1)N(C(=O)c1csnn1)C1CC1 (stereo not drawn) | -1.7%
7 | CCN(CC)C(=O)Oc1cc2c(-c3cc4cccc(OC)c4o3)cc(=O)oc2cc1C | 9.85%
8 | NC(=O)CC(NC(=O)c1ccc(Br)cc1)c1ccc(NCc2ccc(F)c(F)c2)c([N+](=O)[O-])c1 (stereo not drawn) | 2.84%
9 | Cn1c(SCC#N)nnc1-c1cnccn1 | 6.22%
10 | COc1ccccc1C(=O)C1CCCN(C(=O)CCC(=O)c2ccccc2)C1 (stereo not drawn) | -14.9%
11 | O=C(c1cccc(Cl)c1Cl)N1CCN(c2ccccn2)CC1 | -4.17%
12 | CCOC(=O)Cc1csc(SCC(=O)NC2CCCCC2)n1 | 2.29%
13 | COc1cccc(N2CCN(S(=O)(=O)c3ccc(-n4cnnn4)cc3)CC2)c1 | 16.6%
14 | Cc1oc(-c2cccs2)nc1CS(=O)CC(=O)NCc1ccc2c(c1)OCO2 (stereo not drawn) | -17.2%
15 | Cc1ccccc1C(=O)NCC(c1ccco1)N1CCc2ccccc21 (stereo not drawn) | -55.7%
16 | COc1ccccc1Oc1cc(-n2nc(C)cc2C)ncn1 | 11.5%
17 | Cc1ccc(OCCSc2nc3ncnc(N)c3[nH]2)cc1 | 4.83%
18 | O=C(CCCCCn1c(=S)[nH]c2ccc(N3CCOCC3)cc2c1=O)NCc1ccc2c(c1)OCO2 | 18.9%
19 | CCCCCC(=O)Nc1cccc(C2=NOC3(C2)C[C@@H](C(N)=O)N(C(=O)C2(C)CC2)C3)c1 (stereo partly drawn) | 19.1%
20 | Cn1c(=O)n(C)c2cc(NC(=O)c3ccccc3NS(C)(=O)=O)ccc21 | 6.12%
21 | CSc1cccc(NC(=O)CN(C)S(=O)(=O)c2cnc[nH]2)c1 | 15.5%
22 | CN(c1ccc(OCC(=O)OCC(=O)Nc2ccc(F)cc2)cc1)S(=O)(=O)c1ccc(Cl)cc1 | -59.2%

Row | SMILES | hERG current change (%, negative = inhibition) at 10uM
23 | CC1Cc2cc(S(=O)(=O)N3CCCCC3C)ccc2N1C(=O)C1CCC1 (stereo not drawn) | -17.3%
24 | COc1ccc(C)cc1S(=O)(=O)N1CCN(c2cccc(C(F)(F)F)c2)CC1 | 14.1%
25 | CCC(C)NC(=O)c1ccc(CSCc2cccc(F)c2)o1 (stereo not drawn) | -10.3%
26 | O=C1CN(C(=O)c2ccc3nc(Cc4cccc(Cl)c4)oc3c2)CCN1 | 5.02%
27 | COc1ccc2c(C)c(C(=O)O)oc2c1 | 2.2%
28 | CCCCCC(=O)NC(NC(=S)Nc1ccc(S(N)(=O)=O)cc1)C(Cl)(Cl)Cl (stereo not drawn) | 18.8%
29 | CC(=O)N1CC(=O)Nc2ccc(Cl)cc2C1c1ccccc1 (stereo not drawn) | 6.8%
30 | CCCNC(=O)C1(CC2CC(c3ccccc3)=NO2)CCN(C(=O)c2ccccc2)CC1 (stereo not drawn) | -68.9%
31 | CCOC(=O)C1=C(C)NC(=O)NC1c1ccoc1 (stereo not drawn) | -1.07%
32 | Cc1ccc(C2C(C#N)=C(N)Oc3c2oc(CO)cc3=O)o1 (stereo not drawn) | 14.3%
33 | O=C(O)c1ccc(Sc2nnc(-c3cccc(Br)c3)o2)c([N+](=O)[O-])c1 | 7.75%
34 | CCOC(=O)c1sc(NC(C)=O)nc1C | -17%
35 | COc1ccc2occ(C(=O)c3cccs3)c2c1 | -5.06%
36 | CS(=O)(=O)c1ccc2nc(NC(=O)c3ccc(Cn4cc(Br)cn4)o3)sc2c1 | -27.1%
37 | COc1ccc(/C=C/C(=O)N(Cc2cccs2)C2CCS(=O)(=O)C2)cc1 (stereo not drawn) | -48.6%
38 | Cc1nc2cc(NS(=O)(=O)c3cccc(F)c3)ccc2s1 | 7.97%
39 | O=S(=O)(NCc1ccccc1)NCc1cccc(C(F)(F)F)c1 | 11.5%
40 | O=C(NCCCN1CCCC1)C1CCN(C(=O)c2cc3sccc3n2Cc2ccc(F)cc2)CC1 | -11.1%
41 | Br.Cc1nn(CCc2nc(-c3ccco3)cs2)c2[nH]c(=O)cc(C(F)(F)F)c12 | -0.123%
42 | O=C(O)C(Oc1ccc2ccccc2c1)c1ccccc1 (stereo not drawn) | 26.3%
43 | Cc1ccnc(OC(C(=O)O)C(OCCc2ccccc2)(c2ccccc2)c2ccccc2)n1 (stereo not drawn) | 23.2%
44 | Cc1cc(C)cc(N=c2c([N+](=O)[O-])nn(-c3ccc(Cl)cc3)n2O)c1 | 11.8%

Row | SMILES | hERG current change (%, negative = inhibition) at 10uM
45 | CCCCCCCSc1nsc(N)n1 | -10.6%
46 | O=C(O)CSC1CC(=O)N(c2ccc(Br)cc2)C1=O (stereo not drawn) | 11.5%
47 | COc1ccc(C2C(C#N)=C(N)Oc3cc(O)ccc32)cc1OC (stereo not drawn) | -13%
48 | CNC(=O)/C(C#N)=C/c1c(N2CC(C)OC(C)C2)nc2ccccn2c1=O (stereo not drawn) | 1.43%
49 | NC(=O)CC[C@H](NC(=O)c1ccc(F)cc1)C(=O)OCC(=O)Nc1ccc(N2CCOCC2)cc1 | 14.8%
50 | Cc1ccc(S(=O)(=O)CCC(=O)OCc2nnc(-c3ccccc3Br)o2)cc1 | -2.09%
51 | O=C(c1ccc2c(c1)N(Cc1ccc(F)cc1)CCS2)N1CCOCC1 | -23.3%
52 | O=C1/C(=C/c2ccc3c(c2)OCO3)N2CCC1CC2 | -6.99%
53 | O=c1cc(-c2ccco2)oc2c1ccc1ccccc12 | 19.9%
54 | CCc1noc(C)c1C(=O)N1CCCSC1=Nc1ccccc1Cl | -17.1%
55 | COCCOC(=O)c1c(C)oc2ccc(OC(=O)c3ccco3)cc12 | -7.34%
56 | C(=N\Nc1ccc2nncn2n1)/c1ccco1 | 10.7%
57 | O=C(CSCc1c(Cl)cccc1Cl)NCc1cccnc1 | -1.4%
58 | Cc1ccc(-n2ncc3c2CCCC3NC(=O)CCN2CCCC2=O)cc1C (stereo not drawn) | 6.09%
59 | OCCNC(=S)Nc1cccc(Cl)c1Cl | 11.7%
60 | CN(C)CCCOC(=O)N1c2ccccc2C=Cc2ccccc21.Cl | 10.2%
61 | O=C(CCCN1C(=O)c2ccccc2C1=O)Nc1ccc(S(=O)(=O)N2CCOCC2)cc1 | 2.89%
62 | CC(C)CC(COCc1ccc(F)cc1)N1CCN(C(=O)c2cccc(C(F)(F)F)c2)CCC1=O (stereo not drawn) | -46.9%
63 | O=C1CCCC/C1=C/Nc1cccc(C(F)(F)F)c1 | 11.7%
64 | O=C(/C=C/c1ccc2ccccc2c1)c1ccoc1 | 8.22%
65 | CCCc1cc(=O)[nH]c(SCC(=O)Nc2nc(-c3ccccc3)cs2)n1 | 11.7%
66 | Cc1ccc(C(=O)OCC(=O)NCCC2=CCCCC2)s1 | 3.2%

Row | SMILES | hERG current change (%, negative = inhibition) at 10uM
67 | C=CCNC(=O)/C(C#N)=C/c1c(N2CCN(c3ccc(OC)cc3)CC2)nc2c(C)cccn2c1=O | -27.4%
68 | COc1cccc(NC(=S)NC(=O)Cc2ccccc2)c1 | -22.2%
69 | c1ccc(C[C@H]2CNCCN2CCC23CC4CC(CC(C4)C2)C3)cc1 | -4.46%
70 | CC(C)CCOC(=O)C1C2C=CC3(CN(Cc4cccs4)C(=O)C13)O2 (stereo not drawn) | 10.7%
71 | CC12CC[C@H]3[C@@H](CCC4(O)C[C@H](O)CCC34/C=N/NC(=O)c3ccccc3[N+](=O)[O-])C1(O)CCC2C1=CC(=O)OC1 (stereo partly drawn) | 5.28%
72 | Cn1cccc1/C=N\NC(=O)C1COc2ccccc2O1 (stereo not drawn) | 3.89%
73 | COc1ccccc1NC(=O)CCC(=O)Nc1cc(OC)c(NC(=O)c2cccs2)cc1OC | -11%
74 | COC(=O)c1[nH]c2cccc(OC)c2c1NC(=O)CCN1CCC(C)CC1 | -12.2%
75 | Cc1ccc(-n2cc(C(=O)c3cc(Cl)ccc3O)cc(C#N)c2=O)cc1 | -3.3%
76 | Cc1cc(C)c(S(=O)(=O)N(C)CC(=O)NC2CCCC2)c(C)c1 | 0.347%
77 | O=C(Nc1cccc(C(F)(F)F)c1)N(Cc1ccc(Cl)cc1)CC(O)C(F)(F)F (stereo not drawn) | -0.617%
78 | O=C(Nc1ccnn1C1CCN(C(=O)c2cccc(C(F)(F)F)c2)CC1)C1CC1 | 24.6%
79 | COc1ccc(/C=C2/N=C(c3cccs3)OC2=O)cc1OC(C)C | 14.3%
80 | CN(Cc1ccccc1)S(=O)(=O)c1ccc2c(c1)n(C)c(=O)c(=O)n2C | 6.38%
81 | Cc1ccnc(N/N=C/c2ccco2)n1 | 21.5%
82 | Clc1ccc(-c2nnc3n2CCCC3)cc1 | 14.3%
83 | CCOc1cccc(NCc2cc3c(C(C)(C)C)nn(-c4ccccc4)c3[nH]c2=O)c1 | 4.56%
84 | COc1ccc2c(c1)OC1(C)CC2C(C(=O)c2ccccc2OC)C(=O)N1 (stereo not drawn) | 7.88%
85 | CCOC(=O)C1CCN(C(=O)c2cccc(NS(=O)(=O)c3ccc(F)c(F)c3)c2)CC1 | -16.8%
86 | C=CCOc1ccc(-c2nc3c(c(=O)[nH]c(=O)n3CCC)n2CCCC)cc1 | -5.34%
87 | CCCCn1nc(CC(=O)NCCN(CC)CC)c2ccccc2c1=O | 2.16%
